These results are taken from article PMC3638400 (Philosophical Transactions of the Royal Society B: …, 2013).

This data set concerns the molecule itself. The data set is described as follows: SEC; Superformance column packed with Fractogel EMD BioSEC, calibrated with protein standards; 20 mM Tris-HCl pH 7.4, 100 mM NaCl, room temperature; self-association into oligomers. On the technique in general: In gel filtration, larger molecules generally elute earlier.

B1: R140G HSP27 (natural protein)
chain: not shown
notes: HSP27 (HSPB1), human, with R140G (the equivalent of R120G in CRYAB); also called HSP27 R140G
For the protein B1, the binding result was “binds”.
